Results on 15 compounds are retold here after the antibiotic and cytotoxicity screens of Wong et al. (2023).

Some of the results follow.

This assay relates to S. aureus RN4220. Put plainly: growth inhibition call (relative growth <= 0.2). The settings on record: 50 µM.
Regarding `C[C@@H]1CCCCO[C@H](CN(C)Cc2ccc3c(c2)OCO3)[C@@H](C)CN([C@@H](C)CO)C(=O)c2cc(NC(=O)CCC(F)(F)F)ccc2O1`, the growth inhibition call is “inactive”. For `C[C@H](CO)N1C[C@H](C)[C@@H](CN(C)C(=O)N[C@H](C)c2ccccc2)OCc2ccccc2-c2ccccc2C1=O` the value was “inactive”; for `Cc1ccc(S(=O)(=O)Nc2ccc3c(c2)C(=O)N([C@H](C)CO)C[C@H](C)[C@@H](CN(C)C(=O)NC2CCCCC2)OCCCC[C@H](C)O3)cc1`, “inactive”. For `O=C(C[C@H]1C=C[C@H](NC(=O)c2cccnc2)[C@@H](CO)O1)NCc1ccncn1` the value was “inactive”. With `N#C[C@H]1NCc2cnnn2Cc2ccccc21` the entry was “inactive”. As to `Cc1ccc(S(=O)(=O)N(C)C[C@H]2OCCCC[C@H](C)Oc3ccc(NC(=O)Cc4ccccc4)cc3C(=O)N([C@H](C)CO)C[C@H]2C)cc1`, the growth inhibition call was “inactive”. For `C[C@@H]1CN([C@H](C)CO)C(=O)c2cc(C#Cc3ccccn3)cnc2O[C@H]1CN(C)C(=O)c1cnccn1` the value was “inactive”; for `CCCN(C)C[C@H]1OCCCC[C@@H](C)Oc2ccc(NC(=O)Nc3ccc4c(c3)OCO4)cc2C(=O)N([C@H](C)CO)C[C@@H]1C`, “inactive”. Consider `CCCC(=O)Nc1ccc2c(c1)C(=O)N(C)[C@@H]1CC[C@H](CC(=O)NCCN3CCCCC3)O[C@H]1CO2`, for which the growth inhibition call was “inactive”.

For the compound `CC(C)NC(=O)N[C@H]1C=C[C@@H](CC(=O)O)O[C@@H]1CO`, the growth inhibition call is “inactive”. With `C[C@@H]1CN([C@H](C)CO)C(=O)c2cccc(NC(=O)c3ccc(-c4nccs4)cc3)c2O[C@@H]1CN(C)Cc1ccccc1` the entry was “inactive”; with `CC(C)(C)S(=O)N1Cc2cc(C(=O)NCc3ccc4c(c3)OCO4)nc(-c3cccc(-c4cccc(F)c4)c3)c2[C@@H]1CCO` (stereo not given in full), “inactive”; with `C[C@@H]1CCCCO[C@@H](CN(C)C(=O)c2ccncc2)[C@H](C)CN([C@@H](C)CO)C(=O)c2cc(NC(=O)NC3CCCCC3)ccc2O1`, “inactive”. For `C[C@H](CO)N1C[C@H](C)[C@@H](CN(C)C(=O)Nc2cccc3ccccc23)Oc2ccc(NC(=O)CCC(F)(F)F)cc2C1=O` the value was “inactive”. With `C[C@H](CO)N1C[C@H](C)[C@@H](CN(C)S(=O)(=O)c2ccc(F)cc2)OCCCC[C@H](C)Oc2ccc(NS(C)(=O)=O)cc2C1=O` the entry was “inactive”.
